Hit rate of the full screen: of about 52,000 compounds, about 1,700 (3.3%) were called active. No stated cut-off is given here; in the data, active means survival mostly below about 52% (no sharp cut-off); inactive means mostly above about 56%. Some of the results follow.

The subject of the experiment is Wild type. Briefly: S. aureus survival, RN4220 and DeltatarO strains – OD600, teichoic acid synthesis inhibitors, primary screen (AID 463173). The note with it: S. aureus RN4220 wild type/DeltatarO growth, OD600, 18 h, stronger effect = lower value, screened at 18.75 µg/mL (by protocol).
Consider `O=C(Nc1ccccc1)C1CCCN1C1CCCCC1` (configuration not stated), for which the survival is inactive: 108%.
Take `CCn1ccc2c(OCC(=O)Nc3ccccc3C)cccc2c1=O`: the survival was active: 0%.
Consider `COc1ccc(N2CCN(C(=O)c3cccc(NC(=O)c4nsc5ccccc45)c3)CC2)cc1`, for which the survival was inactive: 131%.
Take `CCOC(=O)c1ccc(NC(=O)Nc2cc3c(cc2N2CCCC2)n(C)c(=O)n3C)cc1`: the survival was inactive: 84%.
For `CCC(=O)Nc1cccc(NC(=O)c2cccs2)c1`, the survival is inactive: 113%.
For `O=C(Nc1ccc2nc(SCC(=O)N3CCCc4ccccc43)sc2c1)c1ccccc1` the value was inactive: 86%; for `COc1cccc(CNC(=O)c2cc(C)nc3c2c(C)nn3-c2cccc(F)c2)c1`, inactive: 131%; for `COc1ccc(S(=O)(=O)Nc2ccc3c(c2)CCCN3S(=O)(=O)c2ccc(C)cc2)cc1F`, inactive: 71%.
Take `Nc1c(C(=O)Nc2ccc(F)c(F)c2)sc2nc(-c3ccncc3)ccc12`: the survival is inactive: 96%.
With `COC(=O)c1cc(NC(=O)c2nn(C)c3c2COc2ccccc2-3)cc(C(=O)OC)c1`, the survival is inactive: 86%.
For `O=C(Cc1ccccc1)NC1CCN(S(=O)(=O)c2cccc(F)c2)CC1` the value was inactive: 124%.
In the case of `Cc1ccc(C(CC(=O)O)C2CCOC(C)(C)C2)cc1` (configuration not stated) it was inactive: 122%; in that of `COc1ccccc1NC(=O)C1=C(C)Nc2nc(SCc3ccccc3F)nn2C1c1cccs1` (configuration not stated), inactive: 73%; in that of `O=C(COCc1cc(-c2ccc3c(c2)OCO3)on1)N1CCN(c2ccccc2)CC1`, inactive: 99%.
Take `CCC(CC)C(=O)Nc1nc2c(s1)CC(C)CC2` (configuration not stated): the survival is inactive: 98%.
For the compound `COc1ccc(-n2nnnc2C2CCN(S(=O)(=O)c3ccc(C(C)(C)C)cc3)CC2)cc1`, the survival is inactive: 87%.
Turning to `Cc1ccc(S(=O)(=O)NCCc2cn3ccsc3n2)cc1`, the survival was inactive: 57%.
In the case of `COc1ccc(NC(=O)CCc2nnc3n(CC(C)C)c(=O)c4ccccc4n23)cc1`, the survival was inactive: 91%.
For the compound `COc1ccccc1CCNS(=O)(=O)c1ccc(N2CCCCS2(=O)=O)cc1`, the survival is inactive: 88%.
On to `CSc1nc(NNC(=O)c2ccco2)c2c3c(sc2n1)COC(C)(C)C3`, for which the survival is inactive: 102%.
Take `CCc1ccccc1NC(=O)C1CCCN(c2ncnc3onc(C)c23)C1` (configuration not stated): the survival is inactive: 70%.
For `COc1ccc(CNC(=O)c2ccc(CS(=O)Cc3ccccc3Cl)o2)cc1` (configuration not stated) the value was inactive: 95%.
In the case of `Cc1ccc(C2c3[nH]c4ccccc4c3CCN2C(=O)CCC2CCCC2)cc1` (configuration not stated) it was inactive: 69%; in that of `Cc1nc2ccn(Cc3ccco3)c(=O)c2cc1C(=O)N1CCN(c2ccccc2)CC1`, inactive: 66%.
In the case of `Cc1ccc(NC(=O)Cn2ccn(-c3ccc(F)c(F)c3)c(=O)c2=O)cc1C` it was inactive: 78%; in that of `Cc1ccc(-n2nc(C(=O)N3CCN(c4cc(Cl)ccc4C)CC3)c3c4ccccc4n(C)c3c2=O)cc1`, inactive: 78%.
Take `Cc1cccc2cc(CNCC3CCCO3)c(Cl)nc12` (configuration not stated): the survival was inactive: 129%.
In the case of `Cc1ccc(Cl)cc1-n1ncc2c(Nc3cccc(C)c3C)ncnc21` it was inactive: 72%.
Take `O=C(c1ccc(CSc2nc3ccncc3n2Cc2ccccc2)cc1)N1CCCCCC1`: the survival is inactive: 77%.
For `CC(C)c1ccc(OCC(=O)N(Cc2ccc(N(C)C)cc2)C2CCS(=O)(=O)C2)cc1` (configuration not stated) the value was inactive: 71%; for `C=Cc1ccc(CSc2nc(-c3ccc(C)cc3)nc3c2Cc2c(CO)cnc(C)c2O3)cc1`, inactive: 84%; for `Cc1cccc(NC(=O)C(NS(=O)(=O)c2ccc3c(c2)oc(=O)n3C)C(C)C)c1` (configuration not stated), inactive: 83%.
In the case of `O=c1c(S(=O)(=O)c2cccc(Cl)c2)cn(Cc2ccccc2)c2cc(N3CCOCC3)c(F)cc12` it was inactive: 51%.
For `O=C(Nc1cccc(C(=O)OCc2cc(=O)n3c4c(sc3n2)CCCC4)c1)c1ccccc1` the value was inactive: 75%; for `Cc1ccc2nc(-c3cccnc3)c(Nc3ccccc3C)n2c1`, inactive: 99%; for `CCc1ccc(NC(=O)Cn2c(=O)n(Cc3ccco3)c(=O)c3cccnc32)cc1`, inactive: 122%.
As to `CCCNC(=O)CCSc1nc(-c2ccc3c(c2)OCO3)cc(C(F)(F)F)n1`, the survival was inactive: 84%.
For `Cc1cc(C)c2nc(N(Cc3cccnc3)C(=O)CCOc3ccccc3)sc2c1` the value was inactive: 56%; for `Cc1cnc(C(=O)Nc2ccc(S(=O)(=O)NC(C)C)cc2)cn1`, inactive: 110%.
For `CCOc1ccc(S(=O)(=O)Nc2nc3ccccc3nc2Nc2ccc(OC)cc2)cc1` the value was inactive: 72%.
In the case of `COc1cc(CCC(=O)NCc2ccc3c(c2)CCN3C(=O)c2ccc(F)cc2)cc(OC)c1OC` it was inactive: 100%.
Turning to `CCCC(C)C(=O)Nc1ccc(OC)cc1` (configuration not stated), the survival is inactive: 120%.
In the case of `CCC(=O)Nc1ccc(C(=O)CSc2nnc(-c3ccc(O)cc3)n2CC2CCCO2)cc1` (configuration not stated), the survival is inactive: 103%.
For `CC1CCN(C(=O)CN(C)S(=O)(=O)c2ccc3ccccc3c2)CC1` the value was inactive: 115%; for `CCOC(=O)c1c(SCC(=O)Nc2cc(Cl)cc(Cl)c2)nc(=O)[nH]c1C`, inactive: 55%.
For `Cc1ccc(-c2nnc(N(CC(C)C)C(=O)c3ccco3)s2)cc1` the value was inactive: 105%; for `COc1ccc(-c2nc3c(c(SCC(=O)N(C)c4ccccc4)n2)Cc2cc(C)ccc2O3)cc1`, inactive: 85%; for `CCCCNC(=O)C1CCC(CNS(=O)(=O)c2ccc(NC(C)=O)cc2)CC1` (configuration not stated), inactive: 70%.
As to `COc1ccc2ncc3c(-c4ccc(C)c(C)c4)nn(CC(=O)NC4CCCC4)c3c2c1`, the survival is inactive: 95%.
In the case of `CCN(CC)c1ccc(NC(=O)Cn2nc(C)n3cccc3c2=O)c(C)c1` it was inactive: 88%.
Turning to `Cc1ccc2nc(NCc3ccc(F)cc3)c3nncn3c2c1`, the survival was inactive: 132%.
In the case of `Cc1nc(-c2ccc(S(=O)(=O)NCc3ccc(N(C)C)cc3)cc2)co1` it was inactive: 73%.
As for `CCc1ccccc1NC(=O)CCc1c(C)nn(-c2ccc(N3CCOCC3)nn2)c1C`, the survival was inactive: 140%.
Turning to `CCc1nn2c(=O)cc(COC(=O)c3ccccc3NC(=O)C3CCCCC3)nc2s1`, the survival is inactive: 71%.
In the case of `COc1ccc(-c2nc3n(c(=O)c2C#N)CCS3)cc1` it was inactive: 98%.
Take `CCc1ccc(CNCc2c(C(=O)O)n(Cc3ccc(F)cc3Cl)c3cc(OC)ccc23)cc1`: the survival was inactive: 107%.
In the case of `COc1cc2ccccc2cc1C(=O)N1CCN(c2nc3ccc(F)cc3s2)CC1` it was inactive: 72%.

The record behind these values is PubChem BioAssay AID463173 (ICCB-Longwood Screening Facility, Harvard Medical School, 2010).
